# From PubChem BioAssay AID1963576 (National Center for Advancing Translational Sciences (NCATS), 2024)
# About 60 (0.1%) of roughly 46,000 compounds were called active. Another 3% or so got no clear call; they are omitted. The call rests on the fitted dose curve; in most records, active means well fitted inhibition curve with a large enough effect; inconclusive means small, poorly fitted or top-dose-only effect; inactive means no such curve, though single readings can be large or run the other way. Some of the results follow.
# Test: Primary qHTS assay for Inhibitors of ovarian cancer metastasis using an organotypic tumor microenvironment (TME) model. Further: nearly all actives have a fitted effect of over 65% in size.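 On Potency: count of GFP cancer cells still attached after washing and fixation.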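 On activity change, negative = inhibition: plate controls were DMSO wells for no effect and tomatine positive control wells for full effect.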
# Details: SKOV3ip1-GFP adhesion/invasion on 3D omental model, fluorescence; series mostly up to 45.8 µM; activity change, negative = inhibition: at the top concentration
# Summary of the method: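 qHTS, 4-pt dose (0.36-46 umol/L); SKOV3ip1-GFP, 1,200 cells/well, no FBS; primary omental fibroblast/mesothelial co-culture 48 h pre-grown; 2 h RT + 16 h 37 C; PBS wash, 4% PFA; GFP count 488/509 nm.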
# Potency means the concentration at half of the fitted maximal effect.
SMILES,"activity change, negative = inhibition",Potency,outcome
O=C(NCc1ccc2c(c1)CCN2C(=O)c1ccc(F)cc1)c1ccc(Br)o1,inactive: -8.37%,,
COc1ccccc1NC(=O)N1CC(=O)Nc2sc3c(c2C1c1ccccc1)CCCC3 (stereo not drawn),inactive: -4.64%,,
O=C(Nc1ccc(S(=O)(=O)Nc2ccccc2)cc1)N1CCCC1,inactive: 7.59%,,
COc1ccccc1NC(=O)C1=C(C)Nc2c(C(=O)Nc3ccc(F)cc3)cnn2C1c1ccc(Cl)cc1 (stereo not drawn),inactive: -1.49%,,
CCOc1ccc(-c2oc3ccccc3c(=O)c2O)cc1OCC,inactive: 0.584%,,
CCCS(=O)(=O)c1ncc(Cl)c(C(=O)N(Cc2ccccc2)Cc2ccco2)n1,,active: 2.24 µM,
Cc1ccc(S(=O)(=O)Nc2cc3c(cc2C)n(C)c(=O)c(=O)n3C)cc1,inactive: -5.02%,,
Cn1c(=O)c2c(nc(SCC(=O)Nc3ccc(OC(F)(F)F)cc3)n2Cc2cccc(C(F)(F)F)c2)n(C)c1=O,inactive: -4.3%,,
COc1ccc(-c2noc(-c3ccc(NCc4ccc(C)cc4)c([N+](=O)[O-])c3)n2)cc1OC,,,inactive
COc1cccc(CNC(=O)Cn2cc3c(n2)-c2c(oc(C(=O)N4CCCC4)c2C)CC3)c1OC,inactive: -3.92%,,
CCc1nn(CC(=O)NCCc2ccc(OC)cc2OC)c(=O)c2cc3sccc3n12,inactive: 7.02%,,
COc1cc(CNC(=O)c2cc(-c3ccccc3)n[nH]2)cc(OC)c1OC,inactive: 10.7%,,
Cc1ccccc1NC(=O)CSc1nc(-c2ccc(F)cc2)c2cccc(C)c2n1,inactive: 17.9%,,
COc1ccc(-n2nc(C(=O)N3CCC(C)CC3)c3c4ccccc4n(C)c3c2=O)cc1Cl,inactive: 18%,,
Cn1nc(C(=O)NCc2ccccc2)c2c1-c1ccccc1SC2,,,inactive
CCOC(=O)c1sc2ccccc2c1S(=O)(=O)Nc1c(C)cccc1C,inactive: -15.7%,,
Cc1cc(NC(=O)N2CC=C(c3c[nH]c4ccccc34)CC2)ccc1Br,inactive: -4.38%,,
O=C(Cn1c(=O)n(-c2ccc(F)cc2)c(=O)c2sc3ccccc3c21)N1CCCC1,,,inactive
CCOC(=O)c1c(N)n(-c2ccc(C)c(C)c2)c2nc3ccccc3nc12,inactive: -8.73%,,
Cc1ccc(CSC2=Nc3ccccc3C3=NC(CCC(=O)N4CCN(c5ccccc5)CC4)C(=O)N23)cc1 (stereo not drawn),inactive: -10%,,
Cc1ccc(-c2onc(C)c2C)cc1S(=O)(=O)N1CCCCC1,,,inactive
COc1cccc(-c2nc(SCC(=O)Nc3ccc4c(c3)OCO4)c(-c3ccccc3)[nH]2)c1,inactive: 5.51%,,
CN(C)S(=O)(=O)N(CC(=O)NCCSCc1ccccc1Cl)c1ccccc1,inactive: 1.72%,,
CCc1ccc(S(=O)(=O)c2nnn3c2nc(NCCc2ccccc2)c2sccc23)cc1,inactive: -7.34%,,

SMILES,"activity change, negative = inhibition",Potency,outcome
Cc1nc2c(cnn2-c2ccccc2Cl)c(=O)n1-c1ccc(C(C)C)cc1,,,inactive
COc1cc(NC(=O)Cn2ncc3c(=O)oc4ccccc4c32)cc(OC)c1OC,inactive: 8.62%,,
CCCc1noc(-c2ccc(N3CCCCC3)c([N+](=O)[O-])c2)n1,,,inactive
COc1ccc(CCn2cc3c(c2-c2ccccc2Br)c(=O)n(C)c(=O)n3C)cc1OC,,,inactive
Cc1cccc(N2CCN(S(=O)(=O)c3cc(Br)cc4c3N(C(=O)C3CC3)CC4)CC2C)c1 (stereo not drawn),inactive: 6.46%,,
CC(C)OCCCn1c(SCc2cccc(Br)c2)nc2c(sc3ccccc32)c1=O,inactive: 0.925%,,
CN1C(=O)Cc2cc(S(=O)(=O)CCC(=O)Nc3cccc(C(F)(F)F)c3)ccc21,inactive: -3.95%,,
CCOC(=O)C1(C)C=C(Nc2ccc(C(N)=O)cc2)C(=O)N1c1ccccc1 (stereo not drawn),inactive: 26.7%,,
CCOC(=O)c1cc(S(=O)(=O)Nc2ccc(OC)c(Cl)c2)[nH]n1,inactive: 28.9%,,
CCOc1ccc(CCNC(=O)CCCc2nnc3n(CC(C)C)c(=O)c4sccc4n23)cc1,inactive: -1.47%,,
COc1ccc2c(Sc3ccccc3)c(C(=O)NCc3cccc(OC)c3OC)[nH]c2c1,inactive: 3.21%,,
CC(=O)Nc1ccc(S(=O)(=O)Nc2cccc(-c3ccc(N4CCC(C)CC4)nn3)c2)cc1,inactive: 3.71%,,
CC(=O)N1c2ccc(S(=O)(=O)NCC3CCC(C(=O)NCCC(C)C)CC3)cc2CC1C (stereo not drawn),inactive: 4.1%,,
COc1ccccc1Oc1nc2c(c(=O)n(C)c(=O)n2C)n1Cc1cccc(Br)c1,,,inactive
Cc1ccc(OC(=O)c2cc(-c3ccccc3)nc3ccc(C)cc23)cc1,inactive: 0.22%,,
COCCNC(=O)c1ccc2c(c1)N(Cc1cccc(Cl)c1)C(=O)c1ccccc1S2(=O)=O,,,inactive
O=C(Cc1ccccc1)Nc1sc2c(c1C(=O)Nc1ccccc1Cl)CCC2,inactive: 0.589%,,
COc1ccc(-c2cc(NCc3ccc(F)cc3)n3cnnc3n2)cc1,,,inactive
CCCc1cc(N2CCN(c3cc(Cl)ccc3C)CC2)n2cnnc2n1,inactive: 1.91%,,
CCCN1C(=O)C(Cc2nc3ccccc3c(=O)n2CC)c2ccccc21 (stereo not drawn),,,inactive
COc1ccc(CNC(=O)Cn2nc(C)c3nn(-c4ccc(Cl)cc4)c(C)c3c2=O)cc1,,,inactive
Cc1ccc(-n2nc3c(N4CCC(C(=O)N5CCCCC5)CC4)nnc(C)c3c2C)cc1,inactive: -3.41%,,
Cc1ccc(NC(=O)CCc2nnc3n(CC(C)C)c(=O)c4ccccc4n23)cc1C,inactive: -1.37%,,
Cc1nn(CC(=O)NCCc2ccc(Cl)cc2)c(=O)c2cc3cc(F)ccc3n12,inactive: 1.23%,,
